Measured values: PMC11680393 (Viruses, 2024)

Tested on: RSV A2
Details: 0.1 µg/mL apical, once daily Day 0 to Day 6, RSV A2 0.002 MOI, for the duration of the experiment

## Cc1cnc(N2CC3(CCOCC3)C2)c(C(=O)Nc2ccc(C(=O)N3CCc4cc(C(=O)Nc5c(C)cccc5F)sc4-c4ccccc43)cc2)c1 [PC786]
  viral quantity in apical washes (plaque assay): below detectable limits
